ChEMBL document CHEMBL1201862, “PubChem BioAssay data set” (2004)
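Five compound concentrations were applied to cells in 96-well plates for 48 hours; endpoints were derived by simple linear interpolation of the resulting dose-response curve. At the GI50, growth is halved.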 Active and inactive are the calls of the source. No stated cut-off is given here; in the data, active = GI50 up to about 1.1 µM and inactive = higher.

tested on: NCI-H322M; experiment: DTP human tumour cell line panel, 48 h

Question: For `COc1cc2c(cc1OC)C(=O)N(c1ccc(OCCN3CCCC3)cc1)C2`, which GI50 is on record?
Answer: inactive: > 100 µM

Question: `CCOC(=O)C(Cc1c(-c2[nH]c3ccccc3c2CC(NC(=O)CNC(C)=O)C(=O)OCC)[nH]c2ccccc12)NC(=O)CNC(C)=O` (stereo unspecified) was tested. Which GI50 did it give?
Answer: inactive: 82.6 µM

Question: With `COC12OCCN(C)C1=CC(=O)C1N=NCC12` (stereo unspecified) as the compound, how does the GI50 read?
Answer: inactive: > 100 µM

Question: Which GI50 does the source give for `CC(=O)c1c2c(cc3c1CC1(Cc4cc5c(cc4C1)CCCC5)C3)CCCC2` here?
Answer: inactive: > 100 µM

Question: Which GI50 does the source give for `CC(C)Oc1c(-c2ccc(F)cc2)c(O)c2c3c1oc(=O)n3C=CC2C` (stereo unspecified) here?
Answer: inactive: 13.4 µM

Question: With `COc1cc(C2C(Cl)C(=O)N2NC(=O)Cc2ccccc2)cc(Br)c1O` (stereo unspecified) as the compound, how does the GI50 read?
Answer: inactive: > 100 µM

Question: For `Cc1[nH]n(-c2nc(O)c(C)c(=O)[nH]2)c(=O)c1CCO`, which GI50 is on record?
Answer: inactive: > 100 µM

Question: Which GI50 does the source give for `CCCCCCOc1ccc(NC2=C(Cl)C(=O)c3ncccc3C2=O)cc1` here?
Answer: inactive: 1.99 µM

Question: How did the GI50 turn out when `Cc1nc2c(=O)[nH]c(=O)nc-2n(CCO)c1C` was run?
Answer: inactive: > 100 µM

Question: How did the GI50 turn out when `Cc1nn(-c2ccccc2)c(C)c1/C=N/N=C1\S/C(=C\c2ccc(Cl)cc2)C(=O)N1c1ccccc1` was run?
Answer: inactive: 45.5 µM

Question: `Cc1cc(C)c2c(-c3ccccc3)cc(=O)[nH]c2c1` was tested. Which GI50 did it give?
Answer: inactive: > 100 µM

Question: For `C[C@@H](C[C@@H](O)[C@H](O)C(C)(C)O)[C@H]1CC=C2[C@]3(C)[C@H](O)C[C@H]4C(C)(C)[C@H](O)CC[C@]4(C)[C@H]3CC[C@@]21C`, which GI50 is on record?
Answer: inactive: 14.8 µM

Question: With `CC[N+](C)(C)c1ccc(C(=C2C=CC(=[N+](C)C)C=C2)c2ccc(N(C)C)cc2)cc1` as the compound, how does the GI50 read?
Answer: inactive: 11.3 µM

Question: How did the GI50 turn out when `CC1=CC23C(COC(=O)C24CO4)C(C(=O)O)=CC3C1C` (stereo unspecified) was run?
Answer: inactive: 23.1 µM

Question: Which GI50 does the source give for `CCOC(=O)C12CCCC1(O)N(NC(=O)OC)C(C)=C2C(=O)OC` (stereo unspecified) here?
Answer: inactive: > 100 µM

Question: How did the GI50 turn out when `CC(=O)OCC1OC(Nc2ccc3nc(C)n(-c4cccc(C)c4)c(=O)c3c2)C(OC(C)=O)C(OC(C)=O)C1OC(C)=O` (stereo unspecified) was run?
Answer: inactive: > 62.5 µM

Question: How did the GI50 turn out when `COc1ccc2[nH]cc(CCNC(=O)[C@H](Cc3ccc(O)cc3)NC(=O)[C@@H](NCC(F)(F)F)C(C)C)c2c1` was run?
Answer: inactive: > 100 µM

Question: How did the GI50 turn out when `C=CCOCn1cc(C)c(=O)[nH]c1=O` was run?
Answer: inactive: > 100 µM

Question: For `Cc1ccc(-n2c(=S)[nH]c3ccc(Br)cc3c2=O)cc1`, which GI50 is on record?
Answer: inactive: > 100 µM

Question: How did the GI50 turn out when `O=C1c2ccccc2-c2c1c1ccccc1c(=O)n2-c1cccnc1` was run?
Answer: inactive: > 76.7 µM

Question: Which GI50 does the source give for `C#Cc1nc(N)c2ncn(C3OC(COS(N)(=O)=O)C(O)C3O)c2n1` (stereo unspecified) here?
Answer: active: < 0.0144 µM

Question: With `C[C@]12CC[C@@H]3c4ccc(OCC(=O)O)cc4CC[C@H]3[C@@H]1CCC2=O` as the compound, how does the GI50 read?
Answer: inactive: > 100 µM

Question: `CCN(CC)c1ccc(/C=C(\C#N)c2nc(N)nc(N3N=C(C)CC3(C)C)n2)cc1` was tested. Which GI50 did it give?
Answer: inactive: 26.3 µM

Question: Which GI50 does the source give for `OCCN(C1=NCCN1)/[N+](=C\c1ccccn1)[CH-]c1ccccn1` here?
Answer: inactive: > 100 µM

Question: How did the GI50 turn out when `COc1ccc(-c2cc(C(=O)Nc3cccc(C(F)(F)F)c3)nc(S)n2)cc1` was run?
Answer: inactive: > 100 µM

Question: For `COc1ccc(NC(=O)c2cc(NC(=O)/C=C/c3ccccc3)c(OC)c(OC)c2)cc1`, which GI50 is on record?
Answer: inactive: 33 µM

Question: `O=c1/c(=C/c2ccccc2F)sc2nc3ccccc3n12` was tested. Which GI50 did it give?
Answer: inactive: > 100 µM

Question: How did the GI50 turn out when `O=C1CCC(c2ccc(Cl)cc2)=NN1c1nsc2ccccc12` was run?
Answer: inactive: 34 µM

Question: `CC1=NN2C=Nc3c(c(-c4ccc(Cl)cc4)cn3-c3ccc(C)cc3)C2N1` (stereo unspecified) was tested. Which GI50 did it give?
Answer: inactive: > 100 µM

Question: `COc1ccc(/C(Cl)=C(\CNc2ccccn2)c2ccccc2)cc1OC` was tested. Which GI50 did it give?
Answer: inactive: > 100 µM

Question: With `CC1=N/C(=C\c2ccc(C)cc2)C(=O)O1` as the compound, how does the GI50 read?
Answer: inactive: > 100 µM

Question: `C=CC[N+](CCO)(CCO)CCCCCCCCCCCCCCCCCC` was tested. Which GI50 did it give?
Answer: inactive: 11.5 µM

Question: `COc1cccc(Nc2nc(C)c([N+](=O)[O-])c(Nc3cccc(OC)c3)n2)c1` was tested. Which GI50 did it give?
Answer: inactive: 27.6 µM

Question: `COc1ccc2c(c1)CCC1C3(CCCC21C)OCCO3` (stereo unspecified) was tested. Which GI50 did it give?
Answer: inactive: 19 µM

Question: How did the GI50 turn out when `O=C(Nc1ccc(Cl)cc1Cl)C(=O)C(C(=O)c1ccncc1)C1OC(=O)c2ccccc21` (stereo unspecified) was run?
Answer: inactive: > 100 µM

Question: How did the GI50 turn out when `CCOC(=O)CCn1cnc(N)n1` was run?
Answer: inactive: > 100 µM

Question: For `Cc1ccc(S(=O)(=O)OI(O)CC(F)(F)F)cc1`, which GI50 is on record?
Answer: inactive: > 100 µM

Question: Which GI50 does the source give for `C#CCSc1nc(N)c2ncn(C3OC(CO)C(O)C3O)c2n1` (stereo unspecified) here?
Answer: inactive: > 100 µM

Question: `CCOC(=O)C1C(c2ccc(OC)cc2)c2c(nn(-c3ccccc3)c2O)CC1(C)O` (stereo unspecified) was tested. Which GI50 did it give?
Answer: inactive: > 100 µM

Question: `CCN(CC)CCn1ncc2c3c(=O)c4cccnc4n(CCN(CC)CC)c3ccc21` was tested. Which GI50 did it give?
Answer: inactive: 6.52 µM

Question: Which GI50 does the source give for `O=S(=O)(c1ccccc1)c1ccc(/N=N/O)nc1` here?
Answer: inactive: > 100 µM

Question: For `COc1ccc(Cc2nc3cc(Cl)ccc3o2)cc1`, which GI50 is on record?
Answer: inactive: 82.8 µM

Question: Which GI50 does the source give for `CC(C)[Si](OCC1CC(C[C@H]2CC(C[C@H]3C[C@@H](CO[Si](C(C)C)(C(C)C)C(C)C)OC(C)(C)O3)OC(C)(C)O2)OC(C)(C)O1)(C(C)C)C(C)C` (stereo partly specified) here?
Answer: inactive: > 100 µM

Question: For `Oc1cc(-c2ccccn2)nc2ccc(Cl)cc12`, which GI50 is on record?
Answer: inactive: 51.3 µM

Question: With `CCCCCCCCCCCCn1[nH]c(C)c(C(=S)SCCCCCCCC)c1=O` as the compound, how does the GI50 read?
Answer: inactive: > 100 µM

Question: Which GI50 does the source give for `C#CCOC(=O)c1ccccc1OC(C)=O` here?
Answer: inactive: > 100 µM
